In the supplement of paper PMC11741623:
The other results are listed elsewhere or left out. Interaction screen of human proteins with wild-type SARS-CoV-2 proteins by split-DHFR complementation in yeast, 1 µg/mL methotrexate. Value = fitness of the pair (three or more lineages) minus that of the viral protein without a human partner, on a scale set by negative (0) and fused positive (1) controls, mean of up to three cultures; higher = more likely to interact. Active = false discovery rate below 0.05 (one-sided t-test) in at least one culture. Nearly all pairs are not hits, and differences among them are mostly noise (correlation between cultures about 0.3); most hits were seen in one culture only. Human sequences are the Swiss-Prot entries looked up by gene name; the clone may be another isoform. NSP2 values were corrected by the authors for a growth advantage. Listed are human proteins with a hit and a random twelfth of the others.

Each substance was assayed on SARS-CoV-2 ORF8 (assay: yeast fitness gain over the viral ORF with no human partner (scaled fitness); higher = more likely to interact).
Protocol: (§1)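 Split mouse DHFR complementation in pooled diploid yeast: human ORFeome clones carry one fragment and viral ORFs the other; barcoded lineages compete in 1 µg/mL methotrexate and fitness is read by barcode sequencing in up to three cultures.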

Substance	yeast fitness gain
MCM9, Q9NXL9	inactive: -0.0151
ZFYVE26, Q68DK2	inactive: -0.0588
MAFF, Q9ULX9	inactive: -0.0383
BNIP3L, O60238	inactive: 0.0365
TLK2, Q86UE8	inactive: -0.0242
BHLHA15, Q7RTS1	inactive: -0.139
PTBP1, P26599	inactive: 0.16
DESI2, Q9BSY9	inactive: -0.0789
ZNF720, Q7Z2F6	inactive: 0.0551
EGR3, Q06889	inactive: -0.0208
KPNA1, P52294	inactive: -0.149
HYDIN, Q4G0P3	inactive: -0.0681
ZNF611, Q8N823	inactive: -0.299
TET2, Q6N021	inactive: -0.0248
HAUS7, Q99871	inactive: 0.0236
PTCD1, O75127	inactive: 0.0924

Each substance was assayed on SARS-CoV-2 S in the same assay as above.
Protocol: as §1

Substance	yeast fitness gain
MCM9, Q9NXL9	inactive: 0.0332
ZFYVE26, Q68DK2	inactive: -0.149
MAFF, Q9ULX9	inactive: -0.0182
BNIP3L, O60238	inactive: 0.0217
PTBP1, P26599	inactive: 0.27
EGR3, Q06889	inactive: 0.0601
HAUS7, Q99871	inactive: 0.0544
